# According to publication PMC4336329 (PLoS ONE, 2015):
# Out of some 310,000 compounds screened, about 14,000 (4.5%) showed an effect of 50% or more. The effect is printed as a negative number. Some of the results follow.
# Biological target: human ether-à-go-go-related gene (hERG) potassium channel (human, UniProt Q12809)
# Assay: primary screen, population patch clamp on CHO cells stably expressing hERG
# 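Also: peak tail current of the secondary pulse compared with the same well before compound.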
# human ether-à-go-go-related gene (hERG) potassium channel, sequence (Q12809 whole entry, looked up): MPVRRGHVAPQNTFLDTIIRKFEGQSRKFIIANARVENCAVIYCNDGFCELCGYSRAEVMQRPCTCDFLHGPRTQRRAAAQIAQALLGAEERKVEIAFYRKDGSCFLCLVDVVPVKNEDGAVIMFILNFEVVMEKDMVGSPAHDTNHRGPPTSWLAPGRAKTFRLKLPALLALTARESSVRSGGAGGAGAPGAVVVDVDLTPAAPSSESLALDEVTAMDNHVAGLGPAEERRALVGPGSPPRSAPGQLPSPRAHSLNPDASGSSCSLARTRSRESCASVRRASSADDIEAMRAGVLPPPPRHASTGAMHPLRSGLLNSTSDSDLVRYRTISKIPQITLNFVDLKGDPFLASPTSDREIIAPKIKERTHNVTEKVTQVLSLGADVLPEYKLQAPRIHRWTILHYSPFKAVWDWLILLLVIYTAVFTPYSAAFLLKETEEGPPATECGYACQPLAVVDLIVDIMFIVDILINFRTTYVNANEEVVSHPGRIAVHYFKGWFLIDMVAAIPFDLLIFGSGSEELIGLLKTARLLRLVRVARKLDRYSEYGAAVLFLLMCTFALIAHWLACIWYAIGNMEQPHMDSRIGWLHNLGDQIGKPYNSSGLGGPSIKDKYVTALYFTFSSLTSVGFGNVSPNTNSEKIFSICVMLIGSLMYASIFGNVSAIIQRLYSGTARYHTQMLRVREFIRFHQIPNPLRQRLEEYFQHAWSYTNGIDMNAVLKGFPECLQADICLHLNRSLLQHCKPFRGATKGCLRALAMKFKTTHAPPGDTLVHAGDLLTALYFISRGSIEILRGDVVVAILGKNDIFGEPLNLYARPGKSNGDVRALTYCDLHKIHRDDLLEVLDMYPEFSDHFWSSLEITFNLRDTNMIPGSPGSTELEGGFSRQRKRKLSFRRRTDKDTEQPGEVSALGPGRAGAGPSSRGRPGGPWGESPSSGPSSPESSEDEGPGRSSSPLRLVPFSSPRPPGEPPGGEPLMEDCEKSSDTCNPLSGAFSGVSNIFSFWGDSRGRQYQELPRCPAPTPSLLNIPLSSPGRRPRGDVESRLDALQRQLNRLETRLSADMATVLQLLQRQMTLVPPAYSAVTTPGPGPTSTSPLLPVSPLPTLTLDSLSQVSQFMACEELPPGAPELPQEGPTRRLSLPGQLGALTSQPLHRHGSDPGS
row,Compound,"hERG current change (%, negative = inhibition) at 10uM"
1,CN1CCC(N(C)C(=O)COc2ccccc2Cl)CC1,-1%
2,COCc1cc(=O)n2[nH]c(-c3ccc(C)cc3)cc2n1,-28.3%
3,CN1C[C@H](CO)C[C@@H]2c3cccc4[nH]cc(c34)C[C@H]21,-7.36%
4,Cc1cc(C)cc(N(CC(=O)NC2CCCCCC2)S(=O)(=O)c2c(C)[nH]c(=O)[nH]c2=O)c1,13.8%
5,CCOC(=O)C=C1CCN(c2ncc(C(F)(F)F)cc2Cl)CC1,5.46%
6,Nc1cc(=O)[nH]c(SCC(=O)Nc2cc(S(=O)(=O)N3CCOCC3)ccc2Cl)n1,1.69%
7,Cc1nc(-c2ccccc2)sc1C(=O)CSc1ccc(F)cc1,-7.92%
8,COc1ccc(OC)c(NC(=O)c2ccc(OC3CSC3)cc2)c1,-27%
9,Cc1cc(C)n2c(SCC(=O)Nc3cc(C)on3)nnc2n1,-4.82%
10,COC(=O)c1cc(Br)c(N)cc1OC,14.3%
11,CCn1nc(C)c(/C=N/NC(=O)Cn2nnc(N)n2)c1C,-18.3%
12,CCOc1ccc(NS(=O)(=O)c2cccc(C(=O)N(C)Cc3ccco3)c2)cc1,-30.1%
13,Cc1nc(Sc2cccn2C)c(C(F)(F)F)c(=O)[nH]1,-13.4%
14,O=C1C=C(NC(=O)Nc2ccc(Cl)c(Cl)c2)CCC1,10.5%
15,Cc1cc(F)c(F)c(C(=O)NC2CC2)c1Cl,-0.586%
16,Cc1ccc(C(=O)Nc2cc(=O)n(C)c(=O)n2C)o1,22.3%
17,COc1ccc(-n2c(-c3ccc(Cl)cc3)c[n+]3c2CCc2ccccc2-3)cc1.[Br-],-78.4%
18,CN1C(=O)S/C(=C/c2cccn2-c2cccc(C(=O)O)c2)C1=O,14.5%
19,CCCCn1c(SCC(=O)c2cc(OC)ccc2OC)nc2cc(S(N)(=O)=O)ccc21,2.15%
20,COc1ccc(CC(=O)c2cc(OC)c(OC)cc2CC(=O)O)cc1OC,7.51%

row,Compound,"hERG current change (%, negative = inhibition) at 10uM"
1,C[C@@H]1[C@H](O)C[C@@]23COC(=O)C2=CCC[C@@H]3[C@@]1(C)CC/C(=C/CO)CO,14.8%
2,Cc1nn(CC(=O)NCCc2ccc(Cl)cc2)c(=O)c2cccn12,-6.32%
3,COc1ccccc1-c1c(NC(=O)C(C)C)n(C)c2ccccc2c1=O,6.51%
4,Cc1ccc(C)c(N2CN(Cc3cccnc3)CNC2=S)c1,7.07%
5,COc1cc2[nH]c(=O)n(CCCCCC(=O)NC3CCCC3)c(=O)c2cc1OC,-45.6%
6,O=C(N/N=C/c1ccc(O)c([N+](=O)[O-])c1)c1ccncc1,-7.5%
7,CCCCC(CC)C(=O)NCc1ccc(F)cc1 (stereo not shown),-1.51%
8,O=C(CSc1nnc(COc2ccccc2)n1Cc1ccco1)c1ccc(F)cc1,-21.1%
9,Cc1ccc(-n2c(C)nn(CC3CC3)c2=O)cc1,9.03%
10,COc1ccc(N2CCCC2=N)c(OC)c1.Cl,12.7%
11,CC(NCC(O)COC1CCC(C(C)(C)C)CC1)c1ccccc1.Cl (stereo not shown),-22.1%
12,CN(C)CCN1C(=O)C(O)=C(C(=O)c2cc3ccccc3o2)C1c1ccccn1 (stereo not shown),-8.01%
13,CS(=O)(=O)NNC(=O)c1cc2cc3ccccc3nc2s1,9.84%
14,N#Cc1c(/N=C/N2CCCC2)oc(-c2ccccc2)c1-c1ccccc1,-1.88%
15,CCOc1ccc(C(=O)CCC(=O)O)cc1,-4.71%
16,Cn1nnnc1SCC(=O)N1CCN(Cc2ccccc2)CC1,3.85%
17,CC(=O)Oc1c(C(=O)c2nnc(C)o2)c(=O)n(C)c2ccccc12,-1.57%
18,CCOc1ccc(S(=O)(=O)N2CCC(C(=O)NCc3ccccn3)CC2)cc1Cl,-13.5%
19,C=CCN(CC=C)c1cnn(-c2nc3ccccc3[nH]2)c(=O)c1Cl,-32.1%
20,O=C(c1ccccc1)c1c[nH]c(C(=O)NNc2cccc(Cl)n2)c1,17.6%

row,Compound,"hERG current change (%, negative = inhibition) at 10uM"
1,Cc1c(C(=O)Nc2ccncc2)oc2c1C(=O)CC(C)(C)C2,-18.3%
2,CC(=O)NNC(=S)NC(=O)C(c1ccccc1)c1ccccc1,-2.5%
3,O=C(O)COc1ccccc1/C=N/n1c(C2CCCCC2)n[nH]c1=S,27.2%
4,COc1cccc(NC(=O)CN(C)C(=O)c2cccc(S(=O)(=O)N3CCN(c4ccc(F)cc4)CC3)c2)c1,-45.1%
5,O=C1OC(Nc2ccc(Br)cc2F)c2ccccc21 (stereo not shown),-1.43%
6,CSc1ccc(/C=C(\C(=O)O)c2ccc(S(=O)(=O)N3CCCCC3)s2)cc1,-23.9%
7,O=C(O)CC1(CC(=O)Nc2ccc(Br)cc2)CCCCC1,13.8%
8,Cc1cc2ncn(CCC(=O)NC3CCCC3)c2cc1C,10.1%
9,CCN(CC)CCCN=Cc1c(O)n(CCc2ccc(F)cc2)c(=O)[nH]c1=O,-56.1%
10,CCOC(=O)N1CCC(NC(=O)c2ccc3snnc3c2)CC1,-48.3%
11,CCc1cccc(CC)c1NC(=O)CN(CC(=O)O)CC(=O)O,15%
12,O=C(/C=N/O)NCCCN1CCCCCC1,-14%
13,Cc1ccc2c(c1)nnn2C1CCN(S(=O)(=O)c2ccc(C(=O)N3C(C)CCCC3C)cc2)CC1 (stereo not shown),-5.73%
14,COc1ccc(C(c2nnnn2C2CCCCC2)N2CCN(c3ccccc3F)CC2)cc1 (stereo not shown),12.8%
15,COc1ccc(CNc2cccc(F)c2)cc1Br,-7.3%
16,COC/C=C/C1=CC2=CC(=O)C(C)(OC(=O)c3cnc4ccccc4n3)C(=O)C2=CN1C1CCCCC1 (stereo not shown),7.4%
17,CCc1c(C)[nH]n(-c2nc(-c3ccccc3)cs2)c1=O,14.5%
18,O=C1C=C(c2ccc3ncccc3c2)C[C@@H](c2ccc(Cl)cc2)C1,-3.34%
